44 compounds from article PMC4336329 (PLoS ONE, 2015) can be followed below.

Hit rate of the full screen: of about 310,000 compounds, about 2,200 (0.71%) showed an effect of 50% or more. The effect is printed as a negative number. This is one part of the list.

Chain of human ether-à-go-go-related gene (hERG) potassium channel (Q12809 whole entry, looked up): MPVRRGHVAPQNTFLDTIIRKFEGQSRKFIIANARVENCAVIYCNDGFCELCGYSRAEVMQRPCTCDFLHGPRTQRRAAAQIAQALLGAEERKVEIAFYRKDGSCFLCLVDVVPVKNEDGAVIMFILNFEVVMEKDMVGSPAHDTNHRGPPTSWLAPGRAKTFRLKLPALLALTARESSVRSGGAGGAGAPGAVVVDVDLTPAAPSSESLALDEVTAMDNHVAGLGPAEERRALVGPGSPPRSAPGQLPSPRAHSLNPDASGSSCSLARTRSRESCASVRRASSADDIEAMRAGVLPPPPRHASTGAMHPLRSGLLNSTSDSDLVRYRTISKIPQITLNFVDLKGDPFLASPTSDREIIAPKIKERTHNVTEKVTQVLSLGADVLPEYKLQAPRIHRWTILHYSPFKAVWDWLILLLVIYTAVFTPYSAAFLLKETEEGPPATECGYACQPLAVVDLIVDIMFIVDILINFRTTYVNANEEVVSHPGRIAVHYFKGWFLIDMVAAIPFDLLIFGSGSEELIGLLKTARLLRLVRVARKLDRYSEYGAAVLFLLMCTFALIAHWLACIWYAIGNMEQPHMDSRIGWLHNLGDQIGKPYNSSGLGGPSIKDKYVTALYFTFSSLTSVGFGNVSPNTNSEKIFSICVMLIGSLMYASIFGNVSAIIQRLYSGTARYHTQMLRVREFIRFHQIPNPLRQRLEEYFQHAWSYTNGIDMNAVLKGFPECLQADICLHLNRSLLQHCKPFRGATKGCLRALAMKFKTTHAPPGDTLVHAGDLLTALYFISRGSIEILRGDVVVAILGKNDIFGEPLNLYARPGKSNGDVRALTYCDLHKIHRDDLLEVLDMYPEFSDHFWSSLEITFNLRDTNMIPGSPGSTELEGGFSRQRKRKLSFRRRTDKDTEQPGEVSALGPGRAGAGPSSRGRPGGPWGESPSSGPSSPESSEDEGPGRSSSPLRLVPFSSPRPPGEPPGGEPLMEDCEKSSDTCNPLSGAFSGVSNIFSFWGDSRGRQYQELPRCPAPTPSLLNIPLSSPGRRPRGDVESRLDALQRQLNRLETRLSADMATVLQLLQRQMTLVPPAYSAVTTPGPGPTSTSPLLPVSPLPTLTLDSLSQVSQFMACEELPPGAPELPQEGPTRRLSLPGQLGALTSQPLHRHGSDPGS

This assay concerns the target human ether-à-go-go-related gene (hERG) potassium channel (human, UniProt Q12809). In words: primary screen, population patch clamp on CHO cells stably expressing hERG.
Take `Cc1cc(C)c(NC(=O)CCCN2CCOCC2)c(C)c1`: the “hERG current change (%, negative = inhibition) at 1uM” value was determined as 16%. With `COc1ccc(OCC(=O)N2CCN(c3nnc(-c4ccc(C)cc4)c4ccccc34)CC2)cc1`, the “hERG current change (%, negative = inhibition) at 1uM” value worked out at 1.41%. Regarding `O=C(OCCCCN1C(=O)c2ccccc2C1=O)c1n[nH]c2ccccc12`, the “hERG current change (%, negative = inhibition) at 1uM” value worked out at 21.9%. Next, `Cc1ccc(-n2cc(CN(C)Cc3ncc[nH]3)c(-c3cccc(C)c3)n2)cc1`: 13.4%; `CCCCc1c(O)nc(SCC(=O)O)[nH]c1=O`: 26.5%; `O=C(CN(Cc1ccco1)S(=O)(=O)c1ccccc1)N/N=C/c1ccccc1C(=O)O`: 11.3%. Consider `COc1ccc(NC(=O)CSc2ccc(-c3ccccn3)nn2)cc1OC`, for which the “hERG current change (%, negative = inhibition) at 1uM” value is listed as -1.9%. Consider `CCOC(=O)C1=NOC(CNC(=O)C2=NOC(CNC(=O)c3c(-c4ccccc4Cl)noc3C)C2)C1` (centres unmarked), for which the “hERG current change (%, negative = inhibition) at 1uM” value is on record as -1.55%. Next, `CCC(C)(C)NC(=O)C(c1ccc(OC)cc1)N(C(=O)CCC(=O)Nc1cc(C)on1)c1ccc(OC)c(OC)c1` (centres unmarked): 10.2%; `CCCCCCCSc1nnc(N)s1`: 10.4%.

For the compound `O=C(c1cnsn1)N1CCN(c2ccccn2)CC1`, the “hERG current change (%, negative = inhibition) at 1uM” value came out at 15%. Next, `CCN1CCc2c(sc(NC(=O)C3CCCCC3)c2C(=O)OC)C1.Cl`: 12.1%; `COc1ccc(CCNC(=O)Cc2ccsc2)cc1`: 14%; `COc1ccc(/C=C/C(=O)Nc2ccc3nc4n(c(=O)c3c2)CCCC4)cc1OC`: 11.4%. Turning to `O=C(NCCS(=O)(=O)NCc1ccco1)c1ccccc1`, the “hERG current change (%, negative = inhibition) at 1uM” value came out at 10%.

As for `O=C(Nc1cccc(NC(=O)c2ccccc2F)c1)c1ccccc1`, the “hERG current change (%, negative = inhibition) at 1uM” value turned out to be 6.76%. Next, `COc1ccc([N+](=O)[O-])cc1NC(=O)CC(c1ccccc1)c1ccccc1`: 2.48%. In the case of `COc1ccc2cc(C3c4cc(OC)c(OC)cc4CCN3C(=O)c3ccco3)c(=O)[nH]c2c1` (centres unmarked), the “hERG current change (%, negative = inhibition) at 1uM” value was 5.36%. Next, `CCc1cccc(OCC(=O)N(C)CC(=O)Nc2cccc(F)c2)c1`: -15.7%; `CCn1c(CCc2ccccc2)n[nH]c1=S`: 9.3%. Next, `C/C(=N\N=C1/NC(=O)C(C)S1)c1ccc([N+](=O)[O-])cc1` (centres unmarked): 0.621%; `COc1ccc(NS(=O)(=O)c2cc(NC(=O)c3cnc(C)cn3)ccc2N2CCCC2)cc1`: 12.3%; `COc1ccc(-c2noc(CN3CCOCC3)n2)cc1OC`: -2.66%.

As to `CCOC(=O)c1sc(NC(=O)CCN2CCOCC2)c(C(=O)OCC)c1C`, the “hERG current change (%, negative = inhibition) at 1uM” value was -6.23%. Next, `CCOC(=O)C1CCCN(c2c(NCCCN3CCCC(C)C3)c(=O)c2=O)C1` (centres unmarked): 11.3%; `Cc1ccc(S(=O)(=O)N2CCN(C3CCN(Cc4ccccc4)CC3)CC2)cc1.O=C(O)C(=O)O`: -75.3%. `O=C(c1ccco1)N1CCN(C2CC(=O)N(c3ccccc3)C2=O)CC1` (centres unmarked): the “hERG current change (%, negative = inhibition) at 1uM” value amounted to 10%.

Consider `Cc1ccc(-c2csc(C3=C(O)CN(NC(=O)c4ccco4)C3=N)n2)cc1`, for which the “hERG current change (%, negative = inhibition) at 1uM” value amounted to 11.2%. In the case of `CCOC(=O)c1c(C)[nH]c(C)c1S(=O)(=O)NCC(=O)Nc1ccccn1`, the “hERG current change (%, negative = inhibition) at 1uM” value was 17.5%. Next, `Cc1nc(NCc2ccco2)c2oc3ccccc3c2n1`: -14.3%; `CC(C)(C)c1cc[n+](C2=C([O-])c3ccccc3C(=O)/C2=N\S(=O)(=O)c2cccs2)cc1`: -4.41%. Next, `CCN(CC)CCOC(=O)c1ccc(NC(=O)c2cccc(C)c2[N+](=O)[O-])cc1`: 4.93%; `COc1cccc(C2C(C(=O)c3ccc(C)o3)=C(O)C(=O)N2CCN2CCOCC2)c1OC` (centres unmarked): 9.54%; `COc1ccc(-c2nn(-c3ccccc3)cc2/C=C/C(=O)OCC(=O)Nc2ccc(C#N)cc2)cc1`: 14.9%. Next, `O=C(NCCc1ccccc1)c1cccc(N2CCCC2=O)c1`: 16.4%; `O=C(COc1ccc(Cl)cc1)NC1CC1`: 3.73%; `COC(=O)c1cc(Cl)c(NC(=O)c2ccc(F)cc2)cc1OC`: -2.93%.

Turning to `Cc1nnc(SCC(=O)c2ccc(Br)cc2)s1`, the “hERG current change (%, negative = inhibition) at 1uM” value is on record as 10.7%. Next, `O=c1c2c(-c3cccs3)csc2ncn1/N=C/c1ccc(OC(F)F)cc1`: 7.53%; `COc1ccc2nc(C)cc(SCC(=O)N/N=C/c3ccccc3)c2c1`: 12.9%; `C=CCC(=O)N1CCC(n2nccc2NC(=O)CCOc2ccccc2)CC1`: 13.2%. Consider `O=C(c1ccc(=O)oc1)N1CCOCC1`, for which the “hERG current change (%, negative = inhibition) at 1uM” value was found to be 6.35%.

As for `O=C1C2C3c4ccccc4C(c4ccccc43)C2C(=O)N1/N=C/c1cccc(O)c1` (centres unmarked), the “hERG current change (%, negative = inhibition) at 1uM” value was 10%. Next, `CCCOP(=O)(OCCC)C(Nc1ccc(C(C)C)cc1)c1ccc([N+](=O)[O-])cc1` (centres unmarked): -1.78%.
